Reference: paper PMC4336329 (PLoS ONE, 2015)
The whole screen tested about 310,000 compounds, of which about 14,000 (4.5%) showed an effect of 50% or more. The effect is printed as a negative number. The list shows a part of the results.

Molecular target: human ether-à-go-go-related gene (hERG) potassium channel (human, UniProt Q12809)
Test: primary screen, population patch clamp on CHO cells stably expressing hERG
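Also: peak tail current of the secondary pulse compared with the same well before compound.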

Chain of human ether-à-go-go-related gene (hERG) potassium channel (Q12809 whole entry, looked up): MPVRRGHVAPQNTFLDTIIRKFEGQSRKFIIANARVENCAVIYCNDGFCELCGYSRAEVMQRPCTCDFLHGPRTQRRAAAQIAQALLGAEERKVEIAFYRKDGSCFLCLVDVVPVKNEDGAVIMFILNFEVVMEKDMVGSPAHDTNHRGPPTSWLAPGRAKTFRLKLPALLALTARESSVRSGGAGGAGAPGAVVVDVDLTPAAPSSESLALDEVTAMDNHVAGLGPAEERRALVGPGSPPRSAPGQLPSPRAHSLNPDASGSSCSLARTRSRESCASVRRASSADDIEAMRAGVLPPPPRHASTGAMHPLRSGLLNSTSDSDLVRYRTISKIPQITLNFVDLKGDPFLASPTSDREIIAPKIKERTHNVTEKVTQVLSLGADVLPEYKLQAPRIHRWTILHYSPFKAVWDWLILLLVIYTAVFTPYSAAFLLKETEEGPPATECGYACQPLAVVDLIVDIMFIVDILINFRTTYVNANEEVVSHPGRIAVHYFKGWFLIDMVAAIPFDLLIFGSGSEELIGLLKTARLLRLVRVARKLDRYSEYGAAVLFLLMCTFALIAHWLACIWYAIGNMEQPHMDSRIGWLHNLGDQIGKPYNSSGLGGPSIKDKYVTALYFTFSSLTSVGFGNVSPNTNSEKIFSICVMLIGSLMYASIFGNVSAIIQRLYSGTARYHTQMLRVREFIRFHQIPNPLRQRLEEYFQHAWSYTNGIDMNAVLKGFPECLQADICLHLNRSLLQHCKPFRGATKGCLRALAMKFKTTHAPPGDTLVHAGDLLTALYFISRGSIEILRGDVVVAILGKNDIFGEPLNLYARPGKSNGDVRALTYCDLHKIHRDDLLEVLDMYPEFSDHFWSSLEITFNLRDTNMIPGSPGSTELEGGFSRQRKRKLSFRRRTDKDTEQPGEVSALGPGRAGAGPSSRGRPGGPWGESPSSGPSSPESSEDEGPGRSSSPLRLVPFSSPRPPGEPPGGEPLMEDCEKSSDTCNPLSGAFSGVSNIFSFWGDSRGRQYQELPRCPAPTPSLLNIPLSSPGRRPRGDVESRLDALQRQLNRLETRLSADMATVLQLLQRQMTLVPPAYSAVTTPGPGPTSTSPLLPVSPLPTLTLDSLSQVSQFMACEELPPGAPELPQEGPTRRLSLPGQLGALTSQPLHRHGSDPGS

Compound	hERG current change (%, negative = inhibition) at 10uM
CN(Cc1ccccc1)C(=O)CSc1nc2ccccc2c(=O)n1Cc1ccco1	-3.56%
CCN(C(=O)COC(=O)CCC(=O)c1cccs1)c1c(N)n(Cc2ccccc2)c(=O)[nH]c1=O	-4.97%
CCCCNC(=S)NNC(=O)c1cc(-c2ccncc2)nc2ccccc12	23.6%
O=C1/C(=C\c2cc3c(cc2Br)OCO3)N2CCC1CC2	7.62%
CCC(c1nnnn1C(C)(C)CC)N(CCCN1CCOCC1)Cc1cc2cccc(C)c2[nH]c1=O (centres unmarked)	-13.5%
CCn1c(/C=C/c2ccc(F)cc2)nc2ccccc2c1=O	-5.52%
CCOCCc1c(O)nc(SCC(=O)N2CCOCC2)[nH]c1=O	25.4%
CC(=O)C(Sc1ccc2nnc(-c3ccc(F)cc3)n2n1)C(C)=O	8.13%
CCC(=O)N1N=C(c2ccc(C)o2)CC1c1ccc(OC)cc1 (centres unmarked)	1.57%
COc1ccccc1N1CCN(C(=O)C(C)NC(=O)c2ccco2)CC1 (centres unmarked)	16.1%
O=C(Nc1cc(F)cc(F)c1)c1ccc(NCCc2ccccc2)c([N+](=O)[O-])c1	3.74%
Cc1cc(NC(=O)CCC(=O)N(c2ccccc2)C(C(=O)NC2CCCC2)c2cccs2)no1 (centres unmarked)	8.57%
CCOC(=O)CCSCC(=O)N1N=C(c2cccs2)CC1c1ccc(C)cc1 (centres unmarked)	3.43%
CCCNC(=O)NC(=O)CSc1nncs1	35.1%
O=C1c2cc(S(=O)(=O)N(CCO)CCO)ccc2-c2ccc(S(=O)(=O)N(CCO)CCO)cc21	18.7%
CC(C)(C)C1CCC(OCC(O)CN2CCN(Cc3ccccc3)CC2)CC1.Cl (centres unmarked)	-38.1%
CC(C)NC(=O)c1cc(-n2cnnc2)ccc1Cl	15.1%
CN(Cc1ccccc1)C(=S)Nc1ccc2nc3n(c(=O)c2c1)CCCCC3	-78.1%
Cc1cccc(NC(=S)N/N=C2\CC(C)(C)Oc3ccc(O)cc32)c1	8.34%
Cc1ccc(-n2nc(C)c3c2OC(N)=C(C#N)C3c2ccccc2F)cc1 (centres unmarked)	7.64%
COc1cc(/C=N/S(=O)(=O)CCc2ccccc2)ccc1O	7.45%
O=C1CN(C(=O)N[C@@H](Cc2ccccc2)C(=O)N[C@@H](C(=O)O)c2ccccc2)c2ccccc2N1	19.1%

Compound	hERG current change (%, negative = inhibition) at 10uM
CC(=O)N=c1sccn1CC(O)c1ccc(Br)cc1 (centres unmarked)	10.9%
O=C(CCc1nnc(-c2ccccc2)o1)NCC1CCN(C2CCCC2)CC1	-8.13%
N/C(=N\NC(=O)c1cccs1)c1cc2ccccc2oc1=O	-1.68%
Cc1cc(C)n(CC(=O)NCCC2=CCCCC2)n1	9.32%
Cc1cc(C(=O)NC2CCCc3c2cnn3-c2ccccc2F)nc(C)n1 (centres unmarked)	17.7%
O=C(O)CC(c1ccc(Cl)cc1)N1Cc2ccccc2C1=O (centres unmarked)	18.6%
Cc1nc(N2CCc3ccccc3C2)[nH]c(=O)c1CCC(C)C	5.2%
O=C(COc1ccc(Cl)cc1Cl)NN=C1c2ccccc2-c2ccccc21	9.15%
Cn1c(=O)c2c(nc(NCC3CCCO3)n2C)n(C)c1=O (centres unmarked)	8.74%
Cc1ccc(C(=O)Nc2c(C)n(C)n(-c3ccccc3)c2=O)cc1S(=O)(=O)N1CCOCC1	0.249%
Cc1ccc(Oc2nc3c(C)cccn3c(=O)c2/C=C(\C#N)C(N)=O)cc1	5.43%
O/N=C(/CN(O)/C=C1/C=CC=N1)c1cccs1	7.04%
CCCn1nc(NC(=O)COC)c2cc3cc(C)ccc3nc21	0.61%
O=C(CCN=C1NS(=O)(=O)c2ccccc21)N1CCc2ccccc2C1	-21.9%
CCOc1ccc(NS(=O)(=O)c2ccc(C(=O)NNC(=O)c3ccccc3O)cc2)cc1	12.6%
COC(=O)C1=C(c2cccc(C#N)c2)C[C@@H]2CC[C@H]1N2C(=O)NCCO	15.7%
CCCC(=O)Nc1ccc(Cl)c(NC(=S)NC(=O)c2cc3ccccc3o2)c1	-2.87%
CCOC(=O)c1cccc(OC(=O)CCNC(=O)c2ccc(Cl)cc2)c1	-17.9%
O=C(NC(=S)Nc1ccccc1Cl)c1csnn1	9.47%
CC1CC2(C)Oc3ccccc3CC2C(C)C1CNCCCN(C)C (centres unmarked)	8.13%
Br.COc1ccc(C(=O)CN2CC(C)SC2=Nc2ccc(Cl)cc2)cc1 (centres unmarked)	-10.6%
CCc1cc2c(SCC(=O)NC3CCS(=O)(=O)C3)ncnc2s1 (centres unmarked)	-1.87%

Compound	hERG current change (%, negative = inhibition) at 10uM
COc1ccc(NC(=O)CN2CCN(c3ccccc3Cl)CC2)cc1	-61.4%
COc1ccc(O)c(-c2cc(-c3ccccc3Cl)[nH]n2)c1	19.1%
Cl.O=c1c(-c2ccccc2)c(O)nc(SCCN2CCOCC2)n1-c1ccccc1	26.8%
Cc1cccc(NC(=O)CSc2nnc(C)c(C)n2)c1	15.3%
O=C(CCCN1C(=O)/C(=C/c2cccs2)SC1=S)NNC(=O)c1ccc(F)cc1	-13.4%
Cc1cccc(NC(=O)CN2CCN(C(=O)C3CCCO3)CC2)c1C (centres unmarked)	9.91%
CCN1CCN(S(=O)(=O)c2cc3c(cc2Cl)NC(=O)CO3)CC1	-2.25%
CC(C)Cn1c(N)c(C(=O)COC(=O)c2cc(-c3ccco3)nc3ccccc23)c(=O)n(C)c1=O	15.2%
NC(=O)C1CCN(C(=O)Cn2cccc2C(=O)c2ccccc2)CC1	-8.71%
Cc1ccc(OCC(=O)NCc2ccccn2)cc1	12.4%
Cc1cc(=O)n2[nH]c(-c3ccc(Cl)cc3)cc2n1	-1.65%
Cc1cccc(C(=O)Nc2nnc(-c3cccnc3)o2)c1	12.9%
O=[N+]([O-])c1cc(O)c2ncccc2c1	9.86%
O=C(NCCCN1CCOCC1)c1cc2c(s1)-c1ccccc1OC2	-44.5%
COc1ccc(-c2ccc(S(=O)(=O)n3nc(OC(=O)c4cccs4)cc3N)cc2)cc1	6.28%
CC(=O)c1ccc(NC(=S)Nc2cccc(S(=O)(=O)Nc3c(C)n(C)n(-c4ccccc4)c3=O)c2)cc1	9.89%
Cc1c(Cl)cccc1N/C(=N/S(=O)(=O)c1cccs1)c1ccccc1	13%
CC(C)CNS(=O)(=O)c1ccc(S(=O)(=O)N2CCC(N3CCCCC3)CC2)cc1	-2.05%
CCOc1ccc(C(=O)Nc2c(C(=O)N3CCC(N4CCCCC4)CC3)oc3ccccc23)cc1	-83.2%
COc1ccc(Br)cc1CN1CCCC(C(=O)N2CCCCCC2)C1.O=C(O)C(=O)O (centres unmarked)	-62.4%
O=C(Nc1nc2ccccc2s1)NC1CCCCC1	-4.88%
Cc1ccc(N(O)C(=O)NCCCCNC(=O)N(O)c2ccc(C)cc2)cc1	21.1%

Compound	hERG current change (%, negative = inhibition) at 10uM
CCOc1ccc(NC(=O)C(=O)NCCN2CCN(C(=O)c3ccc(C)cc3)CC2)cc1	-75.2%
O=S(=O)(O)c1ccc(N=NNc2ccc(Br)cc2)cc1	30.7%
COc1ccc(N(C)C(=O)CCS(=O)(=O)c2cccc3nsnc23)cc1	1.29%
N#CC1=C(SCC(=O)Nc2cccc3cccnc23)NC(=O)C(C#N)C12CCCCC2 (centres unmarked)	-20.7%
Cc1oc(-c2ccccc2Cl)nc1CS(=O)CC(=O)NCc1ccc2c(c1)OCO2 (centres unmarked)	-40%
O=C(Cc1ccccc1)NC(C(=O)O)C(O)c1ccc([N+](=O)[O-])cc1 (centres unmarked)	18%
Cl.OCCNc1nc(Nc2ccc(O)cc2)nc2ccccc12	-28.6%
COC(=O)c1cn(NC(=O)Cc2ccccc2OC)c(=O)c2ccccc12	13.9%
CCOC(=O)c1[nH]c2ccccc2c1NC(=O)NC1CCCCC1	3.37%
COC(=O)c1c(-c2ccsc2)oc2ccc(-c3cc(OC)c(OC)c(OC)c3)cc12	10.2%
COc1ccc(NC(=O)CSc2ccc3nnc(-c4ccccn4)n3n2)c(OC)c1	-25.9%
Cc1cc(C)nc(N/N=C/C2=C(O)CC(c3ccccc3)CC2=O)n1 (centres unmarked)	-7.15%
O=C(CSc1nnc(Cc2ccccc2)n1-c1ccccc1)N1CCOCC1	-15.5%
CCC(=O)N1c2ccccc2C(N(C(=O)CC)c2ccccc2)CC1C (centres unmarked)	6%
COc1ccc(N2CC(C(=O)Nc3ccc(N4CCOCC4)cc3)CC2=O)cc1 (centres unmarked)	5.17%
COc1ccc(C(=O)Nc2cccc(C(=O)NCc3ccccc3)c2)cc1	4.28%
COc1ccc(NC(=O)Nc2ccc(N(C)C)cc2)cc1	10.5%
Cn1c(SCC(=O)N2CCCc3ccccc32)nc2cccnc21	9.85%
Cc1ccc(S(=O)(=O)Oc2ccc(/C=C(/NC(=O)c3ccccc3)C(=O)Nc3ccccc3)cc2)cc1	20.8%
CC1(C)N=c2ccc([N+](=O)[O-])c(N)c2=[N+]1[O-]	-3.19%
